These are yes or no findings as the source states them, for the method shown. For some assays here: Binding seen in cells or lysates may run through a third protein. Some entries that bind do so weakly or less than the wild type. For some assays here: Tags and fused reporters may be left off the sequences shown.
Columns and labels:
[1] = target: T1, human CRY2 (hCRY2) in pBridge (human) (UniProt Q49AN0); experiment: two-hybrid; hCRY2 in pBridge, human G-patch proteins in pGADT7, yeast strain AH109, histidine auxotrophy on -Leu/-Thr/-His/-Ade plates, 28 °C, 2-3 days; the discussion says both in darkness and blue light conditions
T1 sequence: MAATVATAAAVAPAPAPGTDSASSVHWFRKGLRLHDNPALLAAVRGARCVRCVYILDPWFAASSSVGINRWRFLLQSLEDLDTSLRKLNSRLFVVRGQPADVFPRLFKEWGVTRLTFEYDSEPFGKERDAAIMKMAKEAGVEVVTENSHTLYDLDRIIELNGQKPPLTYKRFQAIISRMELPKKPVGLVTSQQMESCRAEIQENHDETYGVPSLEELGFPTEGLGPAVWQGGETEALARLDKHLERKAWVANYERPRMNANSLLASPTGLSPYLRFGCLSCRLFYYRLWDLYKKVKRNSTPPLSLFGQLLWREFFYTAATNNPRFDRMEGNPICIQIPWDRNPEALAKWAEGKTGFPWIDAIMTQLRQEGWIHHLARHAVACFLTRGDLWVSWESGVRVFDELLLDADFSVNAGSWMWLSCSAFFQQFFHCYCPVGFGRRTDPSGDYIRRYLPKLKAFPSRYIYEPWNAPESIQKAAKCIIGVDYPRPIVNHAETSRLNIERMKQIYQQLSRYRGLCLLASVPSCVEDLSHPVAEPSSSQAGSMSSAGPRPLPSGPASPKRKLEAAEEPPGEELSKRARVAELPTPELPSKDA

Amino acid sequences for entries named in this document (tags omitted). A change or cut given only in a name is not applied to a line headed by its entry.
UniProt Q9LU44: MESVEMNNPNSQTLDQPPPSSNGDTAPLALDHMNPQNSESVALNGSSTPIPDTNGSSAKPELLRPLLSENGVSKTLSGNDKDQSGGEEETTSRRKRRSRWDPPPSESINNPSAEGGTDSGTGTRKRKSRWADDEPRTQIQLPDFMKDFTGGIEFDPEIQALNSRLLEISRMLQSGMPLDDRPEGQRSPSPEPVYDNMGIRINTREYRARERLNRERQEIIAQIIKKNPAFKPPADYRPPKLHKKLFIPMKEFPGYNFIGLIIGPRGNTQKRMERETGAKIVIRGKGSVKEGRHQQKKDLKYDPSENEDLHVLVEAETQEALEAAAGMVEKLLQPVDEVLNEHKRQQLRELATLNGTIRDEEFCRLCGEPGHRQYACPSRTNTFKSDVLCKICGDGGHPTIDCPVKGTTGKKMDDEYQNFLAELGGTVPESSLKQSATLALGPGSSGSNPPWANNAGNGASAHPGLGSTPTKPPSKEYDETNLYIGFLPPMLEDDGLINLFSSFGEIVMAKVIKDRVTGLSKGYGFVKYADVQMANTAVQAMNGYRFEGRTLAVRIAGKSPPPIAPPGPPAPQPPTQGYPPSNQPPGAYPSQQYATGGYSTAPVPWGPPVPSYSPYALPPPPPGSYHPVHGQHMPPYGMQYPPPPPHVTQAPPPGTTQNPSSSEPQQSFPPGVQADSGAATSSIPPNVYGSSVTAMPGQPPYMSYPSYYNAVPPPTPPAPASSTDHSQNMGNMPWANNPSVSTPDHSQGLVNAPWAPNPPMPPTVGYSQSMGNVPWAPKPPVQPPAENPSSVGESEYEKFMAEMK
UniProt Q96524: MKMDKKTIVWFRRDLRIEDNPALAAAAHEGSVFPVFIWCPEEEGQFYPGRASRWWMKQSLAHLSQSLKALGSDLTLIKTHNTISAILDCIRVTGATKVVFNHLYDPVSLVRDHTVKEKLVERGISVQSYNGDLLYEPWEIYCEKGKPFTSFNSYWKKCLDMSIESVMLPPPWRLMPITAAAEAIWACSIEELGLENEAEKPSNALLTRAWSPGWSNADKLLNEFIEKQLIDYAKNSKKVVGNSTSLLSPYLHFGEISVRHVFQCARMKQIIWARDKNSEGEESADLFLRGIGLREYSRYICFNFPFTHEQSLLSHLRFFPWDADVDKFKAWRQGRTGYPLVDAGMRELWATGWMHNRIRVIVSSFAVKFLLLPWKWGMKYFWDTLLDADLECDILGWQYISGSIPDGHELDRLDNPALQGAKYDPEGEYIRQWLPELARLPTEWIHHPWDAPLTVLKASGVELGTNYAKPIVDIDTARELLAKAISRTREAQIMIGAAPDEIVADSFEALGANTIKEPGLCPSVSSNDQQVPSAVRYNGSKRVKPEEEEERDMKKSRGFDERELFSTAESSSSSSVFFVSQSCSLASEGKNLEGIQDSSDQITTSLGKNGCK

[2] = target: Arabidopsis SF1 homolog (At5g51300), BiFC fusion (Arabidopsis thaliana) (UniProt Q9LU44); experiment: split reporter; BiFC: fusions to CFP(155-238) and YFP(1-172) co-infiltrated into N. benthamiana leaves; plants left under long days, white light, 3 days
[3] = target: CRY2^W374A fused to the GAL4 DNA binding domain (pBridge) (Arabidopsis thaliana) (UniProt Q96524); experiment: two-hybrid; quantitative β-galactosidase assay, yeast strain Y190, bait in pBridge, prey in pGADT7, 28 °C, cells exposed to blue light (30 μmol m^-2 s^-1) for up to 180 min
[4] = target: CRY2^D387A fused to the GAL4 DNA binding domain (pBridge) (Arabidopsis thaliana) (UniProt Q96524); experiment: as above
[5] = target: CRY2 fused to the GAL4 DNA binding domain (bait plasmid pBridge-CRY2) (Arabidopsis thaliana) (UniProt Q96524); experiment: as above
[6] = target: CRY2^W374A fused to the GAL4 DNA binding domain (pBridge) (Arabidopsis thaliana) (UniProt Q96524); experiment: two-hybrid; quantitative β-galactosidase assay, yeast strain Y190, bait in pBridge, prey in pGADT7, 28 °C, cells kept in darkness
[7] = target: CRY2 fused to the GAL4 DNA binding domain (bait plasmid pBridge-CRY2) (Arabidopsis thaliana) (UniProt Q96524); experiment: as above
[8] = target: nYFP-CRY2^D387A (Arabidopsis thaliana) (UniProt Q96524); experiment: split reporter; BiFC: fusions to CFP(155-238) and YFP(1-172) co-infiltrated into N. benthamiana leaves; plants left under long days, white light, 3 days
[9] = target: nYFP-CRY2 (Arabidopsis thaliana) (UniProt Q96524); experiment: as above
[10] = target: cLUC-CRY2 (Arabidopsis thaliana) (UniProt Q96524); experiment: split reporter; BiLC: fusions to the C- or N-terminus of firefly luciferase co-infiltrated into N. benthamiana leaves; LD white light, 3 days; luciferin, CCD camera

B1: human SURP and G Patch Domain Containing 1 (hSUGP1) in pGADT7 (protein, UniProt Q8IWZ8 1-645)
chain: MSLKMDNRDVAGKANRWFGVAPPKSGKMNMNILHQEELIAQKKREIEAKMEQKAKQNQVASPQPPHPGEITNAHNSSCISNKFANDGSFLQQFLKLQKAQTSTDAPTSAPSAPPSTPTPSAGKRSLLISRRTGLGLASLPGPVKSYSHAKQLPVAHRPSVFQSPDEDEEEDYEQWLEIKVSPPEGAETRKVIEKLARFVAEGGPELEKVAMEDYKDNPAFAFLHDKNSREFLYYRKKVAEIRKEAQKSQAASQKVSPPEDEEVKNLAEKLARFIADGGPEVETIALQNNRENQAFSFLYEPNSQGYKYYRQKLEEFRKAKASSTGSFTAPDPGLKRKSPPEALSGSLPPATTCPASSTPAPTIIPAPAAPGKPASAATVKRKRKSRWGPEEDKVELPPAELVQRDVDASPSPLSVQDLKGLGYEKGKPVGLVGVTELSDAQKKQLKEQQEMQQMYDMIMQHKRAMQDMQLLWEKAVQQHQHGYDSDEEVDSELGTWEHQLRRMEMDKTREWAEQLTKMGRGKHFIGDFLPPDELEKFMETFKALKEGREPDYSEYKEFKLTVENIGYQMLMKMGWKEGEGLGSEGQGIKNPVNKGTTTVDGAGFGIDRPAELSKEDDEYEAFRKRMMLAYRFRPNPLNNPRRPYY
Q: How did the binding [1] turn out when B1 was run?
A: binds

B2: CIS1, BiFC fusion used with SF1 (protein, UniProt Q94C11 1-443)
chain: MDKGAPPSIFVNDGSFMERFRQLQQEKDKDKDKVVQVEDSKPVKIISNPKPAANKISIGLKPNDAQKKGGKLAFSLKQKSKLLAPPVKLGTEEDEDDEDVKHEQGFGSVKRQKLEQRDTPVKSAKVSDVAPPPPSDPTVKKVADKLASFVAKHGRPFEHITRQKNPGDTPFKFLFDENCADYKYYVFRLAEEEKLISQTKDSGVLHSGDAGSRTSTAAIPLQKPAYQQTGYQIPASALYDTPVEPGASSRSAQASITRPSDSDSFSGPRGADPLSMMEFYMKKAAQEEKMRRPRQSKDEMPPPASLQGPSETSSTDPGKRGHHMGDYIPLEELDKFLSKCNDAAAQKATKEAAEKAKIQADNVGHKLLSKMGWKEGEGIGSSRKGMADPIMAGDVKTNNLGVGASAPGEVKPEDDIYEQYKKRMMLGYKHRPNPLGNPRKAYY
Q: Which binding [2] does the source give for B2 here?
A: binds

B3: CIS1 (CRY2 … SPLICING FACTOR 1) fused to the GAL4 activation domain (pGADT7) (protein, UniProt Q94C11 1-443)
chain: MDKGAPPSIFVNDGSFMERFRQLQQEKDKDKDKVVQVEDSKPVKIISNPKPAANKISIGLKPNDAQKKGGKLAFSLKQKSKLLAPPVKLGTEEDEDDEDVKHEQGFGSVKRQKLEQRDTPVKSAKVSDVAPPPPSDPTVKKVADKLASFVAKHGRPFEHITRQKNPGDTPFKFLFDENCADYKYYVFRLAEEEKLISQTKDSGVLHSGDAGSRTSTAAIPLQKPAYQQTGYQIPASALYDTPVEPGASSRSAQASITRPSDSDSFSGPRGADPLSMMEFYMKKAAQEEKMRRPRQSKDEMPPPASLQGPSETSSTDPGKRGHHMGDYIPLEELDKFLSKCNDAAAQKATKEAAEKAKIQADNVGHKLLSKMGWKEGEGIGSSRKGMADPIMAGDVKTNNLGVGASAPGEVKPEDDIYEQYKKRMMLGYKHRPNPLGNPRKAYY
Q: With B3 as the binder, how does the binding [3] read?
A: binds

Q: And the binding [4]?
A: no binding

Q: And the binding [5]?
A: binds

Q: What about the binding [6] of the same binder?
A: binds

Q: What about the binding [7] of the same binder?
A: no binding (condition: in darkness (no blue light))

B4: CIS1-cCFP (protein, UniProt Q94C11 1-443)
chain: MDKGAPPSIFVNDGSFMERFRQLQQEKDKDKDKVVQVEDSKPVKIISNPKPAANKISIGLKPNDAQKKGGKLAFSLKQKSKLLAPPVKLGTEEDEDDEDVKHEQGFGSVKRQKLEQRDTPVKSAKVSDVAPPPPSDPTVKKVADKLASFVAKHGRPFEHITRQKNPGDTPFKFLFDENCADYKYYVFRLAEEEKLISQTKDSGVLHSGDAGSRTSTAAIPLQKPAYQQTGYQIPASALYDTPVEPGASSRSAQASITRPSDSDSFSGPRGADPLSMMEFYMKKAAQEEKMRRPRQSKDEMPPPASLQGPSETSSTDPGKRGHHMGDYIPLEELDKFLSKCNDAAAQKATKEAAEKAKIQADNVGHKLLSKMGWKEGEGIGSSRKGMADPIMAGDVKTNNLGVGASAPGEVKPEDDIYEQYKKRMMLGYKHRPNPLGNPRKAYY
Q: For B4, which binding [8] is on record?
A: no binding

Q: What about the binding [9] of the same binder?
A: binds

B5: CIS1-nLUC (protein, UniProt Q94C11 1-443)
chain: MDKGAPPSIFVNDGSFMERFRQLQQEKDKDKDKVVQVEDSKPVKIISNPKPAANKISIGLKPNDAQKKGGKLAFSLKQKSKLLAPPVKLGTEEDEDDEDVKHEQGFGSVKRQKLEQRDTPVKSAKVSDVAPPPPSDPTVKKVADKLASFVAKHGRPFEHITRQKNPGDTPFKFLFDENCADYKYYVFRLAEEEKLISQTKDSGVLHSGDAGSRTSTAAIPLQKPAYQQTGYQIPASALYDTPVEPGASSRSAQASITRPSDSDSFSGPRGADPLSMMEFYMKKAAQEEKMRRPRQSKDEMPPPASLQGPSETSSTDPGKRGHHMGDYIPLEELDKFLSKCNDAAAQKATKEAAEKAKIQADNVGHKLLSKMGWKEGEGIGSSRKGMADPIMAGDVKTNNLGVGASAPGEVKPEDDIYEQYKKRMMLGYKHRPNPLGNPRKAYY
Q: For B5, which binding [10] is on record?
A: binds

B6: CIS2 (At1g63980) fused to a half of firefly luciferase (protein, UniProt Q940M0 1-391)
chain: MAAPEAPVKYVGICKDSAAFKLMKSMGWEEGEGLGKDKQGIKGYVRVTNKQDTSGVGLDKPNPWAFDTTQFDNILKKLKVQAAPTKTSKNDDDSDKEDESEDDAVKSEPAKLKTVAKVTRPQGRYKRREKGKLVNSYSSKDLEGILVKRTEDPSPAVCDIADSMDIEIISEDQDASIKEQKIEEPSSNWWGFKSGFVSGGLLGAKSGKKKLKASERKMFSENDQENLYNMVQDKATAGKQGLGIKDRPKKIAGVRYEGKKTSFDNSDDDDDDDDDDDEEDEEEDEDESEADDDDKDSVIESSLPAKRKHDEIIEPKIKLKNLCKQIVKKDAGKGGFMKLKQLKSLIDEQAPSVLSEFSSRKDAIAYLKLKLERSGKFVVEGKKISLVSSKK
Q: Which binding [10] does the source give for B6 here?
A: binds

Source: PMC9671898
